# Reference: the supplement of paper PMC8728848
# Some of the results follow.
# B1: PX14379A-bvu-539-28-539 (Bacteroides vulgatus) (protein)
# chain: EPYSEIIEEDYVPTEADEIALLATTYSQLRFVMDWYGLFDLQEESGDVIVTPTRPNGWDDGGTYKQMHKHTWDNQQGQPQSIWDYCYKGIANANKILKRADEGFFTEESKPKVVAEVKGVRALWYSILCDTHGNIPIQTSFSEEVPVQSTRKQVFDFIINELKEVMPNLPTEVNKSTYGRLTQWGAKCLMARMYLNAGVYTGTPMWNECLEQCNDIINSGLFSLETNYTDIFKTENSGCVETIFAIPYDEVYNEGDNNGPVFGAHMKFLSSNSRKVFNMQTTPWGGSAANPQFINSYDPDDMRLKYTWLQGDQYSPDGVLITTFPNKLPSIYKTDTDDGYRVGKYEIKVGAKSLLSNDFPYFRYTEVLLMKAECLLRLGQNETEAAHIVSQIRERAFRESAHPEKATVDAAWLKGDTHINYGTLDEKGQIDDAGNTEVVELGGLYDEWGWEFAAEARRRTDMIRFGTYQKKSWFNHTPTANDLNGNSILFPIHLDHLNTNPNLQQNPGYAGK
# How the values were obtained:
# Test in all cases: glycan array binding signal (z-score within array); higher = stronger binding
# Details in all cases: glycan notation: IUPAC condensed, linker removed
# [1] = biological target: Fuc(a1-2)Gal(b1-4)GlcNAc(b1-3)Gal(b1-4)GlcNAc(b1-3)Gal(b1-4)GlcNAc
# In short: (§1)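 From the Consortium for Functional Glycomics database, 3228 arrays were curated, keeping only those whose protein sequence was available. Binding is given as a within-array Z-score averaged across arrays sharing a protein sequence and across linkers. Negative Z-scores can be read as non-binding.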
# [2] = biological target: Fuc(a1-2)Gal(b1-4)GlcNAc(b1-3)GalNAc
# In short: as §1
# [3] = biological target: Fuc(a1-2)Gal(b1-4)GlcNAc(b1-3)[Fuc(a1-2)Gal(b1-4)GlcNAc(b1-6)]GalNAc
# In short: as §1
# [4] = biological target: Fuc(a1-2)Gal(b1-4)GlcNAc(b1-3)[Fuc(a1-3)[Gal(b1-4)]GlcNAc(b1-6)]Gal(b1-4)Glc
# In short: as §1
# [5] = biological target: Fuc(a1-2)Gal(b1-4)GlcNAc(b1-6)GalNAc
# In short: as §1
# [6] = biological target: Fuc(a1-2)Gal(b1-4)GlcNAc6S
# In short: as §1
# [7] = biological target: Fuc(a1-2)Gal(b1-4)[Fuc(a1-3)]GlcNAc
# In short: as §1
# [8] = biological target: Fuc(a1-2)Gal(b1-4)[Fuc(a1-3)]GlcNAc(b1-2)Man(a1-3)[Fuc(a1-2)Gal(b1-4)[Fuc(a1-3)]GlcNAc(b1-2)Man(a1-6)]Man(b1-4)GlcNAc(b1-4)[Fuc(a1-6)]GlcNAc
# In short: as §1
# [9] = biological target: Fuc(a1-2)Gal(b1-4)[Fuc(a1-3)]GlcNAc(b1-2)[Fuc(a1-2)Gal(b1-4)[Fuc(a1-3)]GlcNAc(b1-4)]Man(a1-3)[Fuc(a1-2)Gal(b1-4)[Fuc(a1-3)]GlcNAc(b1-2)Man(a1-6)]Man(b1-4)GlcNAc(b1-4)GlcNAc
# In short: as §1
# [10] = biological target: Fuc(a1-2)Gal(b1-4)[Fuc(a1-3)]GlcNAc(b1-3)Gal(b1-4)[Fuc(a1-3)]GlcNAc
# In short: as §1
# [11] = biological target: Fuc(a1-2)Gal(b1-4)[Fuc(a1-3)]GlcNAc(b1-3)Gal(b1-4)[Fuc(a1-3)]GlcNAc(b1-3)Gal(b1-4)[Fuc(a1-3)]GlcNAc
# In short: as §1
# [12] = biological target: Fuc(a1-2)Gal(b1-4)[Fuc(a1-3)]GlcNAc(b1-3)GalNAc
# In short: as §1
# [13] = biological target: Fuc(a1-2)Gal(b1-4)[Fuc(a1-3)]GlcNAc(b1-3)[Neu5Ac(a2-6)Gal(b1-4)GlcNAc(b1-6)]Gal(b1-4)Glc
# In short: as §1
# [14] = biological target: Fuc(a1-2)Gal3S(b1-4)GlcNAc
# In short: as §1
# [15] = biological target: Fuc(a1-2)Gal6S(b1-3)GlcNAc
# In short: as §1
# [16] = biological target: Fuc(a1-2)Gal6S(b1-3)GlcNAc6S
# In short: as §1
# Fuc(a1-2)Gal6S(b1-4)Glc = biological target: Fuc(a1-2)Gal6S(b1-4)Glc
# In short: as §1
# [17] = biological target: Fuc(a1-2)Gal6S(b1-4)Glc6S
# In short: as §1
# Fuc(a1-2)[Gal(a1-3)]Gal = biological target: Fuc(a1-2)[Gal(a1-3)]Gal
# In short: as §1
# [18] = biological target: Fuc(a1-2)[Gal(a1-3)]Gal(b1-3)GalNAc
# In short: as §1
# [19] = biological target: Fuc(a1-2)[Gal(a1-3)]Gal(b1-3)GalNAc(b1-3)Gal(a1-4)Gal(b1-4)Glc
# In short: as §1
# [20] = biological target: Fuc(a1-2)[Gal(a1-3)]Gal(b1-3)GlcNAc
# In short: as §1
# [21] = biological target: Fuc(a1-2)[Gal(a1-3)]Gal(b1-3)GlcNAc(b1-2)Man(a1-3)[Fuc(a1-2)[Gal(a1-3)]Gal(b1-3)GlcNAc(b1-2)Man(a1-6)]Man(b1-4)GlcNAc(b1-4)GlcNAc
# In short: as §1
# [22] = biological target: Fuc(a1-2)[Gal(a1-3)]Gal(b1-3)GlcNAc(b1-2)Man(a1-3)[Fuc(a1-2)[Gal(a1-3)]Gal(b1-3)GlcNAc(b1-2)Man(a1-6)]Man(b1-4)GlcNAc(b1-4)[Fuc(a1-6)]GlcNAc
# In short: as §1
# [23] = biological target: Fuc(a1-2)[Gal(a1-3)]Gal(b1-3)GlcNAc(b1-3)GalNAc
# In short: as §1
# [24] = biological target: Fuc(a1-2)[Gal(a1-3)]Gal(b1-3)GlcNAc(b1-6)GalNAc
# In short: as §1
# [25] = biological target: Fuc(a1-2)[Gal(a1-3)]Gal(b1-4)Glc
# In short: as §1
# [26] = biological target: Fuc(a1-2)[Gal(a1-3)]Gal(b1-4)GlcNAc
# In short: as §1
# [27] = biological target: Fuc(a1-2)[Gal(a1-3)]Gal(b1-4)GlcNAc(b1-2)Man
# In short: as §1
# [28] = biological target: Fuc(a1-2)[Gal(a1-3)]Gal(b1-4)GlcNAc(b1-2)Man(a1-3)[Fuc(a1-2)[Gal(a1-3)]Gal(b1-4)GlcNAc(b1-2)Man(a1-6)]Man(b1-4)GlcNAc(b1-4)GlcNAc
# In short: as §1
# [29] = biological target: Fuc(a1-2)[Gal(a1-3)]Gal(b1-4)GlcNAc(b1-2)Man(a1-3)[Fuc(a1-2)[Gal(a1-3)]Gal(b1-4)GlcNAc(b1-2)Man(a1-6)]Man(b1-4)GlcNAc(b1-4)[Fuc(a1-6)]GlcNAc
# In short: as §1
# [30] = biological target: Fuc(a1-2)[Gal(a1-3)]Gal(b1-4)GlcNAc(b1-3)GalNAc
# In short: as §1
# [31] = biological target: Fuc(a1-2)[Gal(a1-3)]Gal(b1-4)GlcNAc(b1-3)[Fuc(a1-2)[Gal(a1-3)]Gal(b1-4)GlcNAc(b1-6)]GalNAc
# In short: as §1
# [32] = biological target: Fuc(a1-2)[Gal(a1-3)]Gal(b1-4)GlcNAc(b1-6)GalNAc
# In short: as §1
# [33] = biological target: Fuc(a1-2)[Gal(a1-3)]Gal(b1-4)[Fuc(a1-3)]Glc
# In short: as §1
# [34] = biological target: Fuc(a1-2)[Gal(a1-3)]Gal(b1-4)[Fuc(a1-3)]GlcNAc
# In short: as §1
# [35] = biological target: Fuc(a1-2)[Gal(a1-3)]Gal(b1-4)[Fuc(a1-3)]GlcNAc(b1-3)GalNAc
# In short: as §1
binder,measurement,setting,value
B1,glycan array binding signal (z-score),[1],0.063
same,glycan array binding signal (z-score),[2],-0.13
same,glycan array binding signal (z-score),[3],-0.243
same,glycan array binding signal (z-score),[4],-0.161
same,glycan array binding signal (z-score),[5],0.044
same,glycan array binding signal (z-score),[6],-0.256
same,glycan array binding signal (z-score),[7],-0.17
same,glycan array binding signal (z-score),[8],0.249
same,glycan array binding signal (z-score),[9],0.213
same,glycan array binding signal (z-score),[10],-0.369
same,glycan array binding signal (z-score),[11],-0.279
same,glycan array binding signal (z-score),[12],-0.231
same,glycan array binding signal (z-score),[13],-0.301
same,glycan array binding signal (z-score),[14],-0.25
same,glycan array binding signal (z-score),[15],-0.318
same,glycan array binding signal (z-score),[16],-0.24
same,glycan array binding signal (z-score),Fuc(a1-2)Gal6S(b1-4)Glc,-0.528
same,glycan array binding signal (z-score),[17],-0.173
same,glycan array binding signal (z-score),Fuc(a1-2)[Gal(a1-3)]Gal,-0.149
same,glycan array binding signal (z-score),[18],-0.221
same,glycan array binding signal (z-score),[19],-0.26
same,glycan array binding signal (z-score),[20],-0.419
same,glycan array binding signal (z-score),[21],9.25
same,glycan array binding signal (z-score),[22],-0.006
same,glycan array binding signal (z-score),[23],-0.295
same,glycan array binding signal (z-score),[24],-0.17
same,glycan array binding signal (z-score),[25],0.003
same,glycan array binding signal (z-score),[26],-0.199
same,glycan array binding signal (z-score),[27],0.337
same,glycan array binding signal (z-score),[28],0.349
same,glycan array binding signal (z-score),[29],0.106
same,glycan array binding signal (z-score),[30],-0.384
same,glycan array binding signal (z-score),[31],-0.299
same,glycan array binding signal (z-score),[32],-0.194
same,glycan array binding signal (z-score),[33],-0.231
same,glycan array binding signal (z-score),[34],-0.355
same,glycan array binding signal (z-score),[35],0.191
